# Measurements published in the supplement of paper PMC8728848.
# This is one part of the list.
# B1: BDCA-2 (Homo sapiens), Q8WTT0 (protein)
# chain: MVPEEEPQDREKGLWWFQLKVWSMAVVSILLLSVCFTVSSVVPHNFMYSKTVKRLSKLREYQQYHPSLTCVMEGKDIEDWSCCPTPWTSFQSSCYFISTGMQSWTKSQKNCSVMGADLVVINTREEQDFIIQNLKRNSSYFLGLSDPGGRRHWQWVDQTPYNENVTFWHSGEPNNLDERCAIINFRSSEEWGWNDIHCHVPQKSICKMKKIYI
# Tests used:
# Assay in all cases: glycan array binding signal (z-score within array); higher = stronger binding
# Settings in all cases: glycan notation: IUPAC condensed, linker removed
# [1] = target: Man(a1-3)[Man(a1-6)]Man
# Outline: (§1)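 Arrays were curated from the Consortium for Functional Glycomics database, 3228 in total, and kept only where the protein sequence was available. Binding is expressed as a within-array Z-score. This score was averaged across arrays of the same protein sequence at different concentrations or buffers and across linkers, and negative values can be read as non-binding.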
# [2] = target: Man(a1-3)[Man(a1-6)]Man(a1-6)[Man(a1-2)Man(a1-3)]Man(b1-4)GlcNAc(b1-4)GlcNAc
# Outline: as §1
# [3] = target: Man(a1-3)[Man(a1-6)]Man(a1-6)[Man(a1-3)]Man
# Outline: as §1
# [4] = target: Man(a1-3)[Man(a1-6)]Man(a1-6)[Man(a1-3)]Man(b1-4)GlcNAc(b1-4)GlcNAc
# Outline: as §1
# [5] = target: Man(a1-3)[Man(a1-6)]Man(b1-4)GlcNAc(b1-4)GlcNAc
# Outline: as §1
# [6] = target: Man(a1-3)[Man(a1-6)]Man(b1-4)GlcNAc(b1-4)[Fuc(a1-6)]GlcNAc
# Outline: as §1
# [7] = target: Man(a1-6)Man
# Outline: as §1
# [8] = target: Man(b1-4)GlcNAc
# Outline: as §1
# [9] = target: MurNAc(b1-4)GlcNAc
# Outline: as §1
# [10] = target: Neu5Ac(a2-3)Gal
# Outline: as §1
# [11] = target: Neu5Ac(a2-3)Gal(b1-3)GalNAc
# Outline: as §1
# [12] = target: Neu5Ac(a2-3)Gal(b1-3)GalNAc(b1-3)Gal(a1-4)Gal(b1-4)Glc
# Outline: as §1
# [13] = target: Neu5Ac(a2-3)Gal(b1-3)GalNAc(b1-3)Gal(b1-4)GlcNAc
# Outline: as §1
# [14] = target: Neu5Ac(a2-3)Gal(b1-3)GalNAc(b1-4)[Neu5Ac(a2-3)]Gal(b1-4)Glc
# Outline: as §1
# [15] = target: Neu5Ac(a2-3)Gal(b1-3)GalNAc(b1-4)[Neu5Ac(a2-8)Neu5Ac(a2-3)]Gal(b1-4)Glc
# Outline: as §1
# [16] = target: Neu5Ac(a2-3)Gal(b1-3)GalNAc6S
# Outline: as §1
# [17] = target: Neu5Ac(a2-3)Gal(b1-3)GlcNAc
# Outline: as §1
# [18] = target: Neu5Ac(a2-3)Gal(b1-3)GlcNAc(b1-2)Man
# Outline: as §1
# [19] = target: Neu5Ac(a2-3)Gal(b1-3)GlcNAc(b1-2)Man(a1-3)[GlcNAc(b1-4)][Neu5Ac(a2-3)Gal(b1-3)GlcNAc(b1-2)Man(a1-6)]Man(b1-4)GlcNAc(b1-4)GlcNAc
# Outline: as §1
# [20] = target: Neu5Ac(a2-3)Gal(b1-3)GlcNAc(b1-2)Man(a1-3)[Neu5Ac(a2-3)Gal(b1-3)GlcNAc(b1-2)Man(a1-6)]Man(b1-4)GlcNAc(b1-4)GlcNAc
# Outline: as §1
# [21] = target: Neu5Ac(a2-3)Gal(b1-3)GlcNAc(b1-2)[Neu5Ac(a2-3)Gal(b1-3)GlcNAc(b1-4)]Man(a1-6)[Neu5Ac(a2-3)Gal(b1-3)GlcNAc(b1-2)Man(a1-3)]Man(b1-4)GlcNAc(b1-4)GlcNAc
# Outline: as §1
# [22] = target: Neu5Ac(a2-3)Gal(b1-3)GlcNAc(b1-3)Gal(b1-3)GlcNAc
# Outline: as §1
binder,measurement,setting,value
B1,glycan array binding signal (z-score),[1],-0.213
same,glycan array binding signal (z-score),[2],-0.087
same,glycan array binding signal (z-score),[3],-0.163
same,glycan array binding signal (z-score),[4],-0.184
same,glycan array binding signal (z-score),[5],-0.165
same,glycan array binding signal (z-score),[6],-0.173
same,glycan array binding signal (z-score),[7],-0.104
same,glycan array binding signal (z-score),[8],-0.331
same,glycan array binding signal (z-score),[9],-0.187
same,glycan array binding signal (z-score),[10],-0.068
same,glycan array binding signal (z-score),[11],-0.215
same,glycan array binding signal (z-score),[12],-0.141
same,glycan array binding signal (z-score),[13],-0.21
same,glycan array binding signal (z-score),[14],-0.233
same,glycan array binding signal (z-score),[15],-0.092
same,glycan array binding signal (z-score),[16],-0.127
same,glycan array binding signal (z-score),[17],-0.278
same,glycan array binding signal (z-score),[18],0.013
same,glycan array binding signal (z-score),[19],-0.182
same,glycan array binding signal (z-score),[20],-0.169
same,glycan array binding signal (z-score),[21],0.022
same,glycan array binding signal (z-score),[22],-0.196
